# Results taken from paper PMC4600972.
# Amino acid sequences for entries named in this document (tags omitted).
# UniProt Q96A37: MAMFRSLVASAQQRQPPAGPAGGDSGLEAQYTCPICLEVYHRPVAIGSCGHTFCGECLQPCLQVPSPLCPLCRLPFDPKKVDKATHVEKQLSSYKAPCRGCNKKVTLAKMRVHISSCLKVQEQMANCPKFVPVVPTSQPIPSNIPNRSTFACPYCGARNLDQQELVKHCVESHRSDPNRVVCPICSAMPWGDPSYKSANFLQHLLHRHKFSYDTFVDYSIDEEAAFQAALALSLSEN
# UniProt Q7Z434: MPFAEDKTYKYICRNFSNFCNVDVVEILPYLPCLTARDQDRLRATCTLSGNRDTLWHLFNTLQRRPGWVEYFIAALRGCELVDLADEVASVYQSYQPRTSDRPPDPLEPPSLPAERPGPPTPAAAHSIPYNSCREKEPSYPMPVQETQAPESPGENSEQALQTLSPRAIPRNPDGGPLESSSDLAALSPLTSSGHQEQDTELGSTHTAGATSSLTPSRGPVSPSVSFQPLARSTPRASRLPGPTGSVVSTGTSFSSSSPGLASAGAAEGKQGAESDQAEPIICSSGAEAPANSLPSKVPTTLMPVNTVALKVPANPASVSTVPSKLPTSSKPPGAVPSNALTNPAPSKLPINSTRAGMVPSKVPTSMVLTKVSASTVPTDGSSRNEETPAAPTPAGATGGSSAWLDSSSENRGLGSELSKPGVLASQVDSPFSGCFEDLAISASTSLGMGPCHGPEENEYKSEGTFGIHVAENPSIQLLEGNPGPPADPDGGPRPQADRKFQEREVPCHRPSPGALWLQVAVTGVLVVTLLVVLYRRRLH
# Results are given in words; binding and its absence hold for the method and conditions named. Binding seen in cells or lysates may run through a third protein. Some results given as binding are weak or reduced against the parent protein; the word gives no strength. Sequences can lack the tags named with a protein.
# B1: Flag-RIG-I (protein, UniProt O95786 1-925)
# chain: MTTEQRRSLQAFQDYIRKTLDPTYILSYMAPWFREEEVQYIQAEKNNKGPMEAATLFLKFLLELQEEGWFRGFLDALDHAGYSGLYEAIESWDFKKIEKLEEYRLLLKRLQPEFKTRIIPTDIISDLSECLINQECEEILQICSTKGMMAGAEKLVECLLRSDKENWPKTLKLALEKERNKFSELWIVEKGIKDVETEDLEDKMETSDIQIFYQEDPECQNLSENSCPPSEVSDTNLYSPFKPRNYQLELALPAMKGKNTIICAPTGCGKTFVSLLICEHHLKKFPQGQKGKVVFFANQIPVYEQQKSVFSKYFERHGYRVTGISGATAENVPVEQIVENNDIIILTPQILVNNLKKGTIPSLSIFTLMIFDECHNTSKQHPYNMIMFNYLDQKLGGSSGPLPQVIGLTASVGVGDAKNTDEALDYICKLCASLDASVIATVKHNLEELEQVVYKPQKFFRKVESRISDKFKYIIAQLMRDTESLAKRICKDLENLSQIQNREFGTQKYEQWIVTVQKACMVFQMPDKDEESRICKALFLYTSHLRKYNDALIISEHARMKDALDYLKDFFSNVRAAGFDEIEQDLTQRFEEKLQELESVSRDPSNENPKLEDLCFILQEEYHLNPETITILFVKTRALVDALKNWIEGNPKLSFLKPGILTGRGKTNQNTGMTLPAQKCILDAFKASGDHNILIATSVADEGIDIAQCNLVILYEYVGNVIKMIQTRGRGRARGSKCFLLTSNAGVIEKEQINMYKEKMMNDSILRLQTWDEAVFREKILHIQTHEKFIRDSQEKPKPVPDKENKKLLCRKCKALACYTADVRVIEECHYTVLGDAFKECFVSRPHPKPKQFSSFEKRAKIFCARQNCSHDWGIHVKYKTFEIPVIKIESFVVEDIATGVQTLYSKWKDFHFEKIPFDPAEMSK
# B2: Flag-MDA5 (protein, UniProt Q9BYX4 1-1025)
# chain: MSNGYSTDENFRYLISCFRARVKMYIQVEPVLDYLTFLPAEVKEQIQRTVATSGNMQAVELLLSTLEKGVWHLGWTREFVEALRRTGSPLAARYMNPELTDLPSPSFENAHDEYLQLLNLLQPTLVDKLLVRDVLDKCMEEELLTIEDRNRIAAAENNGNESGVRELLKRIVQKENWFSAFLNVLRQTGNNELVQELTGSDCSESNAEIENLSQVDGPQVEEQLLSTTVQPNLEKEVWGMENNSSESSFADSSVVSESDTSLAEGSVSCLDESLGHNSNMGSDSGTMGSDSDEENVAARASPEPELQLRPYQMEVAQPALEGKNIIICLPTGSGKTRVAVYIAKDHLDKKKKASEPGKVIVLVNKVLLVEQLFRKEFQPFLKKWYRVIGLSGDTQLKISFPEVVKSCDIIISTAQILENSLLNLENGEDAGVQLSDFSLIIIDECHHTNKEAVYNNIMRHYLMQKLKNNRLKKENKPVIPLPQILGLTASPGVGGATKQAKAEEHILKLCANLDAFTIKTVKENLDQLKNQIQEPCKKFAIADATREDPFKEKLLEIMTRIQTYCQMSPMSDFGTQPYEQWAIQMEKKAAKEGNRKERVCAEHLRKYNEALQINDTIRMIDAYTHLETFYNEEKDKKFAVIEDDSDEGGDDEYCDGDEDEDDLKKPLKLDETDRFLMTLFFENNKMLKRLAENPEYENEKLTKLRNTIMEQYTRTEESARGIIFTKTRQSAYALSQWITENEKFAEVGVKAHHLIGAGHSSEFKPMTQNEQKEVISKFRTGKINLLIATTVAEEGLDIKECNIVIRYGLVTNEIAMVQARGRARADESTYVLVAHSGSGVIEHETVNDFREKMMYKAIHCVQNMKPEEYAHKILELQMQSIMEKKMKTKRNIAKHYKNNPSLITFLCKNCSVLACSGEDIHVIEKMHHVNMTPEFKELYIVRENKALQKKCADYQINGEIICKCGQAWGTMMVHKGLDLPCLKIRNFVVVFKNNSTKKQYKKWVELPITFPNLDYSECCLFSDED
# B3: Flag-TBK1 (protein, UniProt Q9UHD2 1-729)
# chain: MQSTSNHLWLLSDILGQGATANVFRGRHKKTGDLFAIKVFNNISFLRPVDVQMREFEVLKKLNHKNIVKLFAIEEETTTRHKVLIMEFCPCGSLYTVLEEPSNAYGLPESEFLIVLRDVVGGMNHLRENGIVHRDIKPGNIMRVIGEDGQSVYKLTDFGAARELEDDEQFVSLYGTEEYLHPDMYERAVLRKDHQKKYGATVDLWSIGVTFYHAATGSLPFRPFEGPRRNKEVMYKIITGKPSGAISGVQKAENGPIDWSGDMPVSCSLSRGLQVLLTPVLANILEADQEKCWGFDQFFAETSDILHRMVIHVFSLQQMTAHKIYIHSYNTATIFHELVYKQTKIISSNQELIYEGRRLVLEPGRLAQHFPKTTEENPIFVVSREPLNTIGLIYEKISLPKVHPRYDLDGDASMAKAITGVVCYACRIASTLLLYQELMRKGIRWLIELIKDDYNETVHKKTEVVITLDFCIRNIEKTVKVYEKLMKINLEAAELGEISDIHTKLLRLSSSQGTIETSLQDIDSRLSPGGSLADAWAHQEGTHPKDRNVEKLQVLLNCMTEIYYQFKKDKAERRLAYNEEQIHKFDKQKLYYHATKAMTHFTDECVKKYEAFLNKSEEWIRKMLHLRKQLLSLTNQCFDIEEEVSKYQEYTNELQETLPQKMFTASSGIKHTMTPIYPSSNTLVEMTLGMKKLKEEMEGVVKELAENNHILERFGSLTMDGGLRNVDCL
# B4: Flag-IRF3 (protein, UniProt Q14653 1-427)
# chain: MGTPKPRILPWLVSQLDLGQLEGVAWVNKSRTRFRIPWKHGLRQDAQQEDFGIFQAWAEATGAYVPGRDKPDLPTWKRNFRSALNRKEGLRLAEDRSKDPHDPHKIYEFVNSGVGDFSQPDTSPDTNGGGSTSDTQEDILDELLGNMVLAPLPDPGPPSLAVAPEPCPQPLRSPSLDNPTPFPNLGPSENPLKRLLVPGEEWEFEVTAFYRGRQVFQQTISCPEGLRLVGSEVGDRTLPGWPVTLPDPGMSLTDRGVMSYVRHVLSCLGGGLALWRAGQWLWAQRLGHCHTYWAVSEELLPNSGHGPDGEVPKDKEGGVFDLGPFIVDLITFTEGSGRSPRYALWFCVGESWPQDQPWTKRLVMVKVVPTCLRALVEMARVGGASSLENTVDLHISNSHPLSLTSDQYKAYLQDLVEGMDFQGPGES
# Target: HA-tagged Ring finger protein 166 (RNF166) (human) (UniProt Q96A37)
# Test: co-IP; 293T cells co-transfected with the indicated plasmids (RNF166 or its truncations, and Flag-tagged partners); lysis in 20 mM Tris pH 7.5, 150 mM NaCl, 1% Triton X-100, 1 mM EDTA; lysates immunoprecipitated with anti-HA; western blot with anti-HA and anti-Flag (Fig. 2D, Fig. 4F)
row,Molecule,binding
1,Flag-VISA (from UniProt Q7Z434 1-540),binds
2,B1,no binding
3,B2,no binding
4,B3,no binding
5,B4,no binding
